From PubChem BioAssay AID588342 (National Center for Advancing Translational Sciences (NCATS), 2011)
The campaign covered roughly 360,000 compounds. About 25,000 (6.9%) were called active. The inconclusive results got no clear call from the source; some entries with a clear call stand among them for comparison. Calls follow the shape of the dose curve; as a rule, active = well fitted inhibition curve with a large enough effect; inconclusive = small, poorly fitted or top-dose-only effect; inactive = flat fitted curve, though single readings scatter. Potencies of inconclusive entries are doubtful fits and often do not repeat.

Target: Luciferin 4-monooxygenase (Photinus pyralis) (UniProt P08659)
Test: qHTS profiling assay for firefly luciferase inhibitor/activator using purifed enzyme and Km concentrations of substrates (counterscreen for miR-21 project); also: nearly all actives have a fitted effect of over 55% in size
Conditions: purified FLuc, luminescence inhibition; series mostly up to 57.5 µM
Outline: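 Purified P. pyralis luciferase (10nM final) with 10uM D-luciferin and 10uM ATP (Km levels) in 50mM Tris acetate pH 7.5, 10mM Mg acetate, 0.01% Tween-20, 0.05% BSA; qHTS 6-point titration, ~60 µM downward; luminescence read.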
Potency is read from the fitted curve at half-maximal effect; tags tell the direction and shape of the fitted curve.

Sequence of UniProt P08659 (P08659 whole entry, looked up): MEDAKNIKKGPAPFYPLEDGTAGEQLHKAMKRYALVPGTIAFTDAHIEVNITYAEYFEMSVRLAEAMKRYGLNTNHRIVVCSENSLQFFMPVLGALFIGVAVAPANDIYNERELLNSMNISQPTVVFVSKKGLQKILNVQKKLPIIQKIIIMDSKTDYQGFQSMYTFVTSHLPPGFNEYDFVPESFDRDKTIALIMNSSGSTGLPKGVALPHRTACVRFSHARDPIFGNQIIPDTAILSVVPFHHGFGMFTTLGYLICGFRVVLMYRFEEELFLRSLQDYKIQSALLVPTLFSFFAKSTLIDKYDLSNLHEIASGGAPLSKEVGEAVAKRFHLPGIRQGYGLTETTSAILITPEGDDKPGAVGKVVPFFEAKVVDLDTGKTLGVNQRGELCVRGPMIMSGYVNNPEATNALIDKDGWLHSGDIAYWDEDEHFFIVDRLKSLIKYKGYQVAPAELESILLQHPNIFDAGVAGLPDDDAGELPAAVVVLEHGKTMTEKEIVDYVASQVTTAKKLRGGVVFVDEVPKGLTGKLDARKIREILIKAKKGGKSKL

Compound	Potency
Cc1ccccc1C(=O)NC(=S)Nc1ncccn1	inconclusive: 26.9 µM [inhibitor, partial curve, poor fit]
CCOc1ccc2[nH]c3nc(SCC(=O)NCC4CCCO4)nnc3c2c1 (stereo unspecified)	inconclusive: 26.9 µM [inhibitor, single point]
O=C(Nc1cccc(S(=O)(=O)N2CCOCC2)c1)c1ccc2ccccc2n1	inconclusive: 37.9 µM [inhibitor, single point]
CC(COc1ccccc1)N1CCC(CO)(Cc2ccccc2)CC1 (stereo unspecified)	inactive
CC(C)Oc1cccc(C(=O)Nc2ccc3oc(-c4ccccc4)nc3c2)c1	inconclusive: 12 µM [inhibitor, partial curve]
CC(=O)N/C(N)=N/c1nc2cc([N+](=O)[O-])ccc2o1	inconclusive: 10.7 µM [inhibitor, partial curve, poor fit]
COc1cccc(NC(=O)Nc2ccc3c(c2)nc(C)n3C)c1	active: 0.953 µM
Cc1cc(C)cc(NC(=O)c2cc(Cl)sc2Cl)c1	inconclusive: 26.9 µM [inhibitor, single point]
Cc1cc(=O)[nH]c(N/N=C/c2ccc3c(c2)OCCO3)n1	active: 10.7 µM
CCc1nnc(NC(=O)c2cc(-c3cccnc3)nc3ccccc23)s1	inconclusive: 26.9 µM [inhibitor, partial curve, poor fit]
CN=c1scc(-c2cccs2)n1/N=C/c1ccc(O)c(O)c1O	active: 1.69 µM
CCc1ccc(N(C(=O)c2csnn2)C(C(=O)NC(C)(C)C)c2ccccn2)cc1 (stereo unspecified)	inconclusive: 23.9 µM [inhibitor, single point]
CCCC(=O)Nc1cc(-c2nc3ncccc3o2)ccc1Cl	inactive
O=[N+]([O-])/C(C(Cl)=C(Cl)Cl)=C(/Sc1ccccc1)N1CCCCC1	inactive
N#Cc1cc2c(nc1SCC(=O)N1CCCCC1)CCCCC2	inconclusive: 23.9 µM [inhibitor, single point]
S=C(NCc1ccco1)Nc1ccc(Br)cc1Cl	active: 26.9 µM
COc1ccc(/C(N)=N/OC(=O)CC2CCCCC2)cc1OC	inconclusive: 30.1 µM [inhibitor, single point]
Cc1ccccc1CNC(=O)CCSCc1cnn(-c2ccccc2)c1-n1cccc1	inactive
CC(C)Cc1nnc(NC(=O)CSc2nc(-c3ccccc3)cc(=O)[nH]2)s1	active: 12 µM
CCOc1cc(-c2nc(C)c(C(C)=O)n2O)ccc1OCC(=O)Nc1ccccc1	inconclusive: 37.9 µM [inhibitor, partial curve, poor fit]
C/C(=N\NC(=O)c1ccc(-c2ccccc2)cc1)c1ccco1	inconclusive: 9.53 µM [inhibitor, partial curve, poor fit]
O=C(c1cc(-c2cccs2)nc2ccccc12)N1CCN(S(=O)(=O)c2cccc(F)c2)CC1	inconclusive: 21.3 µM [inhibitor, partial curve, poor fit]
O=S(=O)(c1ccc(=S)[nH]c1)N1CCOCC1	inconclusive: 30.1 µM [inhibitor, partial curve, poor fit]
O=C(CCCOc1ccccc1)Nc1nc2ccccc2[nH]1	active: 10.7 µM

Compound	Potency
CC(=O)c1cccc(OCc2cc(C(=O)N3C[C@@H](C)O[C@@H](C)C3)no2)c1	active: 15.1 µM
COc1ccc(C2CC(=O)Oc3c2c(=O)n(C)c2ccccc32)c(OC)c1OC (stereo unspecified)	inconclusive: 26.9 µM [inhibitor, partial curve, poor fit]
COc1cc(C(C)=O)ccc1COc1ccc(C(=O)OCC(N)=O)cc1OC	active: 12 µM
CCCNS(=O)(=O)c1cccc(C(=O)OCc2cc(=O)oc3cc(OC)ccc23)c1	inconclusive: 15.1 µM [inhibitor, partial curve]
O=C(COc1ccccc1)Nc1ccc2nc(SCC(=O)N3CCCC3)sc2c1	inconclusive: 26.9 µM [inhibitor, partial curve, poor fit]
Cn1c(CCN2CCCCCC2)nc2cc(NC(=O)Nc3ccccc3)ccc21	active: 21.3 µM
CCCCOC(=O)c1ccc(NC(=O)c2ccccc2OC)cc1	inconclusive: 26.9 µM [inhibitor, single point]
COc1ccc(/C=N/c2nc3ccccc3n2C)cc1OC	active: 0.757 µM
Cc1ccc(OCc2cc(C(=O)N3CCN(C4CCCC4)CC3)no2)cc1C	inconclusive: 21.3 µM [inhibitor, partial curve, poor fit]
C/C(Cc1ccccc1)=N\NC(=O)CNC(=O)c1ccccc1F	inconclusive: 23.9 µM [inhibitor, partial curve]
CCOC(=O)N1CCC(Nc2ncnc3c2cnn3-c2ccc(Cl)cc2)CC1	inconclusive: 13.5 µM [inhibitor, partial curve, poor fit]
O=c1cc(N2CCc3ccccc32)[nH]c(=O)n1-c1ccccc1Cl	inconclusive: 19 µM [inhibitor, partial curve, poor fit]
O=C(O)CCn1ccc2cc(S(=O)(=O)N3CCCCC3)ccc21	inactive
Clc1cc(NCc2cccs2)ccc1N1CCOCC1	inconclusive: 21.3 µM [inhibitor, single point]
CN(C)S(=O)(=O)c1cccc(C(=O)Nc2cc(Cl)cc(Cl)c2)c1	inconclusive: 19 µM [inhibitor, partial curve]
COc1ccc2nc3cc(Cl)ccc3c(Nc3cc(CN4CCCC4)c(O)c(CN4CCCC4)c3)c2n1	inconclusive: 37.9 µM [inhibitor, partial curve, poor fit]
Nc1ccccc1-c1n[nH]c(=S)s1	inconclusive: 16.9 µM [inhibitor, partial curve]
COc1ccc(-c2cc(C(=O)N/N=C/c3ccc4c(c3)OCO4)c3ccccc3n2)c(OC)c1	inconclusive: 12 µM [inhibitor, partial curve]
COc1ccc(-c2cc(C(=O)OCC(=O)c3ccc(C)c([N+](=O)[O-])c3)c3ccccc3n2)cc1	inconclusive: 8.49 µM [inhibitor, partial curve, poor fit]
COc1cc(C2C(C(=O)c3sc(C)nc3C)=C(O)C(=O)N2CCN(C)C)cc(OC)c1OC (stereo unspecified)	inactive
Cc1ccc(Oc2ncccc2C(=O)NC2CCSC2=O)cc1 (stereo unspecified)	inactive
Cc1ccc(NC(=O)c2ccc(CNc3c(N4CCC(C)CC4)c(=O)c3=O)cc2)cc1	inconclusive: 12 µM [inhibitor, partial curve]
Cc1cc(C)c2c(=O)[nH]c(SCc3ccccc3)nc2n1	inconclusive: 10.7 µM [inhibitor, partial curve, poor fit]
Cc1ccc(C)c(C(=O)CSc2nc3cc(C(=O)NC4CCCC4)ccc3c(=O)n2CC2CCCO2)c1 (stereo unspecified)	inactive

Compound	Potency
COC(=O)CSc1cc(C(=O)c2nccn2C)c2ccccc2n1	inactive
Cc1cc(O)c(C(C)C)cc1N=Nc1ccccc1C(=O)O	inconclusive: 26.9 µM [inhibitor, single point]
CCCn1nnnc1NC(=O)COc1ccc(Cl)cc1C	inactive
Cc1ccc(C)c(N)c1	inactive
C/C(=N\NC(=O)C1CC1)c1cccc(NC(=O)c2cccc(Cl)c2)c1	inconclusive: 37.9 µM [inhibitor, partial curve, poor fit]
Cc1ccc(C(=O)N/C(=C/c2cccnc2)C(=O)N2CCCCCC2)cc1	inactive
COc1ccc(/C=C(\CC(=O)O)c2nc3ccccc3s2)cc1O	inconclusive: 26.9 µM [inhibitor, partial curve, poor fit]
CCN1CCN(Cc2coc3ccc(C)cc3c2=O)CC1	inconclusive: 26.9 µM [inhibitor, partial curve, poor fit]
COc1ccc(CCNC(=O)c2cccc(NC(=O)CC3SC(N4CCCCC4)=NC3=O)c2)cc1OC (stereo unspecified)	inconclusive: 16.9 µM [inhibitor, partial curve]
CCC1(C)Cc2c(sc(NC(=S)NC(=O)c3ccccc3)c2C#N)CO1 (stereo unspecified)	active: 6.01 µM
Cc1cc(C)c2cc(C(=O)Nc3ccccc3)[nH]c2c1	inconclusive: 6.75 µM [inhibitor, partial curve]
O=C(NCCCc1ccccc1)c1cnc2n(c1=O)CCS2	inconclusive: 15.1 µM [inhibitor, partial curve]
CC(C)(C)C(CN1CCCC1)OC(=O)c1ccccc1 (stereo unspecified)	inactive
Cc1cc(-c2nnc(SCCC(=O)Nc3ccccc3)o2)no1	inactive
Cc1ccccc1C(=O)N1CCC(C(=O)Nc2nc3ccc(F)cc3s2)CC1	inconclusive: 37.9 µM [inhibitor, single point]
COc1cccc(CN(C)C(=O)CC23CC4CC(CC(C4)C2)C3)c1OC	inactive
CC(C)=CCCC1(C)C=Cc2c(c(C)cc3c2[nH]c2cc(O)ccc23)O1 (stereo unspecified)	inconclusive: 23.9 µM [inhibitor, single point]
COc1ccc(CC(=O)Nc2nc(-c3ccc(F)c(F)c3)cs2)cc1	inactive
O=C1C(=O)N(c2cccc(Cl)c2)C(c2ccccc2[N+](=O)[O-])/C1=C(\O)c1ccccc1 (stereo unspecified)	inconclusive: 26.9 µM [inhibitor, partial curve, poor fit]
CCCC(=O)N1CCCC(c2nc(-c3cccc(OC)c3)no2)C1 (stereo unspecified)	active: 9.53 µM
COc1ccc(-c2nc3ccccn3c2/N=C/c2ccc(OC)c(OC)c2)cc1O	active: 13.5 µM
Nc1nnc(-c2ccc(F)cc2)s1	inconclusive: 26.9 µM [inhibitor, single point]
C/C(=N\NC(=O)c1ccc(Cn2cc(Br)cn2)o1)c1ccc(NC(=O)c2ccoc2C)cc1	inactive
